# Laboratory results taken from PubChem BioAssay (NCATS).
# Some of the results follow. These are further read-outs of the screen, such as a control signal, another cell line or another target. No call is given for them. Most of these compounds were active or inconclusive in the main read-out, so they are no random draw. Potencies come from curve fits of mixed quality, noted in brackets.
# Target: Histamine N-methyltransferase (Homo sapiens) (UniProt P50135)
# Assay: Confirmatory Screen for Target Class Profiling of Small Molecule Inhibitors of Methyltransferases (AID 1745852);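 also: inhibitor potency for blocking SAH production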
# Details: MTase-Glo luminescence, SAH detection, recombinant enzyme; measured here: HNMT inhibition potency
# Tags tell the direction and shape of the fitted curve.
# UniProt P50135, sequence (P50135 whole entry, looked up): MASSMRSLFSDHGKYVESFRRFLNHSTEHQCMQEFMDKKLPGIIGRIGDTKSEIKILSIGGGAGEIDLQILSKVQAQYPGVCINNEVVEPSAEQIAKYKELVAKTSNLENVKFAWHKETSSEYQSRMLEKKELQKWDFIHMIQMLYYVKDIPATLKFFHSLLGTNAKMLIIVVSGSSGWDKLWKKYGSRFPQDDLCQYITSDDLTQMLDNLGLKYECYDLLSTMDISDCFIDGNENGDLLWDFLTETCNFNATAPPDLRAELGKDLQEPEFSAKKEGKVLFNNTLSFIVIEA
row,Structure (SMILES),IC50
1,c1ccc(CN2CCNc3cnc(Nc4ccc(N5CCOCC5)cc4)cc3C2)cc1,"35 µM [falling, partial curve]"
2,Cc1cc(NC(=O)c2cccc(NC(=O)/C=C/CN(C)C)c2)ccc1Nc1nccc(-c2cccnc2)n1,"4.29 µM [falling, full curve]"
3,O=C(Cc1ccsc1)Nc1ccc2c(N3CCCC3)ncnc2c1,"6.81 µM [falling, partial curve]"
4,COc1cccc(Nc2cc3c(cn2)CN(Cc2cccnc2)CCN3)c1,"7.84 µM [falling, partial curve]"
5,COc1cccc(CN2CCCC3(CCN(c4cc(C)nc(N)n4)C3)C2)c1OC (configuration not stated),"19.2 µM [falling, partial curve]"
6,c1ccc(CCN2CCNc3cc(NCc4cccnc4)ncc3C2)cc1,"12.4 µM [falling, partial curve]"
7,CNC(=O)NCCc1ncc(C)n1C1CCCCCCC1,"19.2 µM [falling, partial curve]"
8,Cc1ccc(NC(=O)N2CCc3c(c4ccccc4n3CC3CC3)C2)cc1,"24.1 µM [falling, single point]"
9,O=C(CCc1nnc2n(CCc3ccccc3)c(=O)c3ccccc3n12)N1CCN(C2CCCCC2)CC1,"6.07 µM [falling, full curve]"
10,O=C(NCc1cccc(Cl)c1)c1cnc2c(c1)N(C(=O)Cc1ccc(O)cc1)CCC2,"11.1 µM [falling, partial curve]"
11,COc1ccc(-c2[nH]ncc2CN2CC[C@H]3CC[C@@H](C2)N3)cc1,"19.2 µM [falling, partial curve]"
12,Fc1ccc2c(CCNCc3cccc(OCC(F)(F)C(F)F)c3)c[nH]c2c1,"21.5 µM [falling, partial curve]"
